Where “and” joins values, the source holds several entries; their conditions need not be identical. Equal entries are not always repeated. About 40 (0.2%) of roughly 16,000 compounds were called active. Not shown: some 1% with an inconclusive outcome. The call rests on the fitted dose curve; in most records, active means well fitted activation curve with a large enough effect; inconclusive means small, poorly fitted or top-dose-only effect, or another doubt; inactive means no such curve, though single readings can be large or run the other way. This is one part of the list. Non-standard residues stand in square brackets, D forms with d. Residues, ends and D or L forms follow the SMILES beside them. *: point of attachment. Sta = CC(C)C[C@H](N)[C@@H](O)CC(=O)O; Isovaleryl = CC(C)CC(=O)*
Biological target: Rap guanine nucleotide exchange factor 4 (Homo sapiens) (UniProt Q8WZA2)
Sequence of UniProt Q8WZA2 (Q8WZA2 whole entry, looked up): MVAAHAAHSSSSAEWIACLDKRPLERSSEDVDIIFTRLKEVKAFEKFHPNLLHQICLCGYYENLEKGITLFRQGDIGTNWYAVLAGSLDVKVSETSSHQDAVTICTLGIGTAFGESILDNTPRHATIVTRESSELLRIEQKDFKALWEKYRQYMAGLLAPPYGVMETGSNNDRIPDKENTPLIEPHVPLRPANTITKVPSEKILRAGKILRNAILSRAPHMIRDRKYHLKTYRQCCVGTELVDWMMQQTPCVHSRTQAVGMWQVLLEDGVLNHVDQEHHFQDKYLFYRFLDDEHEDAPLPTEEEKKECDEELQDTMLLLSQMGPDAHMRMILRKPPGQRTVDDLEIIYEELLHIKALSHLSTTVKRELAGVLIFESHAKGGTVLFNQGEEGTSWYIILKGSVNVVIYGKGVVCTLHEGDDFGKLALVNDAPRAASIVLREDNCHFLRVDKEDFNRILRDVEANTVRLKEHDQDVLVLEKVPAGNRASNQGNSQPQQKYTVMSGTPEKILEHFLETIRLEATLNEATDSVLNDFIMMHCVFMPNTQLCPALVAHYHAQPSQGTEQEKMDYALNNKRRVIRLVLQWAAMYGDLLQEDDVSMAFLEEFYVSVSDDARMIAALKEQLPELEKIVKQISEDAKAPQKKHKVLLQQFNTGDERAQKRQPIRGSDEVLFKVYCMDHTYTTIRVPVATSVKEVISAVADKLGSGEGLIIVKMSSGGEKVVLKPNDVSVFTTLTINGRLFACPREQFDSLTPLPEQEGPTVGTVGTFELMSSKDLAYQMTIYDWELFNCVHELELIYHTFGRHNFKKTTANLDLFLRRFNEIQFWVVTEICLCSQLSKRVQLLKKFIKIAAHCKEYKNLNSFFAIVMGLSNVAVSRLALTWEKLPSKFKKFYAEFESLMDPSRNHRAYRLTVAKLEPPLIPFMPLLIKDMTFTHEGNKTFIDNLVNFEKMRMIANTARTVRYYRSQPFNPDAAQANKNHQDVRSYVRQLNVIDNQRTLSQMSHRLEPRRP
Test: Validation qHTS for agonist of cAMP-regulated guanine nucleotide exchange factor 4 (EPAC2);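 on activation: exchange makes BODIPY-GDP fluorescence drop when released from Rap1B; series mostly up to about 150 µM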
Conditions: EPAC2 Rap1B BODIPY-GDP exchange, fluorescence; activation: active compounds read high
How it was run: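 Fluorescent exchange assay: 100 nM EPAC2 with 250 nM RAP1B-BODIPY-GDP and 50 uM GDP; compound added, 5 min at room temperature, then read (ex 480/em 540 nm) every 5 min for 30 min. Normalized to 6.5 mM cAMP agonist control.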
On the % scale 0 is the no-effect control and ±100 the full control effect; potency means the concentration at half of the fitted maximal effect.

SMILES | activation | Potency
Nc1ccn([C@@H]2O[C@H](CO)[C@H](O)C2(F)F)c(=O)n1 | inactive: 7.07% | 
COC(=O)C[C@H]1c2cc(F)ccc2S(=O)(=O)N1Cc1ccccc1 | inactive: -4.73% | 
C[C@@H]1C[C@H]2[C@@H]3C[C@H](F)C4=CC(=O)C(Cl)=C[C@]4(C)[C@@]3(F)[C@@H](O)C[C@]2(C)[C@@]1(O)C(=O)CO | inactive: -18% | 
O=C(c1csnn1)N1CCC2(CC1)CN(Cc1cc(C(F)(F)F)cc(C(F)(F)F)c1)C2 | inactive: -9.1% | 
CO[C@H]1C[C@@H]2CC[C@@H](C)[C@@](O)(O2)C(=O)C(=O)N2CCCC[C@H]2C(=O)O[C@H](C(C)C[C@H]2CC[C@@H](O)[C@H](OC)C2)CC(=O)[C@H](C)/C=C(\C)[C@@H](O)[C@@H](OC)C(=O)[C@H](C)C[C@H](C)/C=C/C=C/C=C/1C (some centres not stated) | inactive: -21% | 
C=CCN1CCc2c(cc(O)c(O)c2Br)[C@@H](c2ccccc2)C1 | inactive: -9.01% and inactive: -23.9% | 
Nc1nc(NCCc2ccc(O)cc2)nc2nc(-c3ccco3)nn12 | inactive: -11.7% and inactive: -19.9% | 
CCCCCCCCCCCC(=O)N(CCO)CCO | inactive: -40% | 
CC1(C)C(O)C=C[C@@]2(C)C1CC(=O)O[C@@]1(C)C3=CC(=O)OC(c4ccoc4)[C@]3(C)CCC21 (some centres not stated) | inactive: -21.2% | 
COc1cc(OC)c(OC)cc1CN1CCOc2ccc(CN3C[C@@H](C)O[C@@H](C)C3)cc2C1 | inactive: -10.3% | 
COC(=O)c1ccc(O)cc1 | inactive: -14.6% | 
FC(F)(F)c1ccccc1-c1cncnc1Nc1ccccc1 | inactive: -9.03% | 
COc1c(-c2ccc(O)c(O)c2)oc2cc(O)cc(O)c2c1=O | inactive: 0.58% | 
COc1ccc(Oc2ncc3nc(-c4ccc(OC)cc4)c(=O)n(CCC#N)c3n2)cc1 | inactive: -4.27% | 
CCCCCCCCCNC(=O)[C@H](NC(=O)COc1ccccc1)[C@@H]1NC(C(=O)OC)C(C)(C)S1 (some centres not stated) | inactive: -13.6% | 
C[C@@](N)(C(=O)O)c1ccc(P(=O)(O)O)cc1 | inactive: -13.9% | 
CCc1nc2cc(C(=O)N[C@H]3CCCCNC3=O)cc(NC(=O)c3ccccc3OC)c2n1C | inactive: 2.5% | 
C[C@H](O)C(=O)Nc1c(I)c(C(=O)NC(CO)CO)c(I)c(C(=O)NC(CO)CO)c1I | inactive: 0.0144% | 
CCN(CC)CCOc1ccc2nc(N(C)C)sc2c1 | inactive: 4.04% | 
c1ccc(C(NCc2cccnc2)(c2ccccc2)c2ccccc2)cc1 | inactive: 4.44% | 
Cc1cnc(CNc2nc(-c3cccnc3)nc3ccccc23)cn1 | inactive: -9.05% | 

SMILES | activation | Potency
Cc1cccc(C#Cc2ccccc2)n1 | inactive: -20.2% and inactive: -1.2% and inactive: -39.3% | 
N[C@H](C(=O)O)c1cc(O)cc(O)c1 | inactive: 0.734% [middle of 4 runs] | 
CNc1cc(-c2c(C)noc2C)ncn1 | inactive: 4.79% | 
Cc1cnc(SCc2ccccn2)nc1C1CCCN(C(=O)c2noc3c2CCCC3)C1 (configuration not stated) | inactive: -13.5% | 
Cc1nc2cnc(N3CCNCC3)nc2n(CCc2ccccc2)c1=O | inactive: -22.7% | 
CC(C)CC(=O)N[C@H](C(=O)N[C@H](C(=O)N[C@@H](CC(C)C)[C@@H](O)CC(=O)N[C@@H](C)C(=O)N[C@@H](CC(C)C)[C@@H](O)CC(=O)O)C(C)C)C(C)C (Isovaleryl-VV[Sta]A[Sta]-OH) | inactive: 2.78% and inactive: -26.9% | 
COc1ccccc1CCC(=O)O | inactive: -3.93% | 
CCC(C(=O)O)c1ccccc1 (configuration not stated) | inactive: 4.99% | 
Cc1onc(-c2ccccc2)c1C(=O)NC1C(=O)N2C(C(=O)O)C(C)(C)S[C@@H]12 (some centres not stated) | inactive: 3.38% | 
CO[C@H]1[C@H](NC(=O)c2ccsc2)c2ccccc2C12CCN(Cc1cc3ccccc3o1)CC2 | inactive: 12.6% | 
COc1cccc(Cn2c(=O)c(C)nc3cnc(OC)nc32)c1 | inactive: 1.23% | 
COCc1c(C(=O)N2CCC(c3ccccc3)CC2)cnn1-c1nccc(-c2cc(C)sc2C)n1 | inactive: -16.7% | 
O=c1cc[nH]c(=S)[nH]1 | inactive: 4.41% | 
CCCCC/C=C\C\C=C/C=C/C=C/[C@@H](SC[C@H](N)C(=O)O)[C@@H](O)CCCC(=O)O | inactive: 0.139% | 
c1ccc(CCNc2nc(-c3ccccc3)cs2)cc1 | inactive: 4.83% | 
N[C@H](Cn1ccc(=O)c(O)c1)C(=O)O | inactive: 0.148% | 
O=C(O)C1Cc2c([nH]c3ccccc23)C(c2coc3ccccc3c2=O)N1 (configuration not stated) | inactive: -2.51% | 
CCC(=O)c1c(O)cc(O)cc1O | inactive: -17.3% | 
OCC1O[C@H](O)C(Cl)C(O)C1O (some centres not stated) | inactive: 4.22% | 
Cn1cnnc1Sc1ccc(CN2CCOc3ccc(C4=Cc5ccccc5C4)cc3C2)o1 | inactive: -31.1% | 
CC(C)(C)[C@]1(O)CCN2C[C@H]3c4ccccc4CCc4cccc(c43)[C@@H]2C1 | inactive: -6.66% and inactive: -25.8% and inactive: -38.5% | 

SMILES | activation | Potency
NC(=O)[C@H]1O[C@@H](O)[C@H](O)[C@@H](O)[C@@H]1O | inactive: 7.08% | 
Nc1nc2[nH]c(=O)cnc2c(=O)[nH]1 | inactive: -33.3% | 
O=S(=O)(c1ccccc1)N1CCC[C@@]2(CCN(C(c3ccccc3)c3ccccc3)C2)C1 | inactive: -5.72% | 
[N-]=[N+]=NCCN1CCN(Cc2ccccc2)CCC1=O | inactive: -4.87% | 
O=S1(=O)CCO[C@H]2CCCC[C@@H]2N1Cc1ccccc1F | inactive: -21.5% | 
CCN(CC)CCNC(=O)c1cnn(-c2ncc3c(n2)-c2ccc(OC)cc2CC3)c1C | inactive: 0.725% | 
C=C(C)C(=O)OC[C@@H]1CCC[N@+]2(C)CCCCC12 (some centres not stated) | inactive: -24.7% | 
CCOc1ccccc1O[C@H](c1ccccc1)[C@H]1CNCCO1 | inactive: -17.1% | 
NC(=NCc1ccc(Cl)cc1Cl)NC(=O)c1nc(Cl)c(N)nc1N | inactive: 5.98% and inactive: -12.2% | 
COc1ccccc1-c1nc(NCCN2CCOCC2)c2ccccc2n1 | inactive: -12.2% | 
O=C(O)C1CCCN1 (configuration not stated) | inactive: 8.25% | 
CC1Cc2ccccc2N1NC(=O)c1ccc(Cl)c(S(N)(=O)=O)c1 (configuration not stated) | inactive: -0.735% and inactive: 6.37% | 
Cc1ccc2c(C)nc(N3CCCC(C(=O)NC(C)(C)CO)C3)nc2c1 (configuration not stated) | inactive: 1.38% | 
CCN1/C(=C/C=C/c2sc3ccccc3[n+]2CC)Sc2ccccc21 | inactive: -2.36% | 
COc1ccccc1-c1ccnc(-n2ncc(C(=O)N(C)CCc3ccccn3)c2C)n1 | inactive: -8.25% | 
CCOCC(O)COc1ccc(NC(=O)CC[S+](C)C)cc1 (configuration not stated) | inactive: 18.3% | 
CCCCCCCCCCCCCCCCCC(=O)OCC(C)O (configuration not stated) | inactive: -8.91% | 
COc1cc(/C=C(\C#N)C(N)=O)cc(CSc2nc3ccccc3s2)c1O | inactive: -1.99% and inactive: 8.92% and inactive: 1.02% | 
CC(=O)c1ccc(OCC(=O)N2CCCCC2)cc1 | inactive: -10% | 
FC(F)(F)c1ccccc1-c1cc(NCc2ccccc2)ncn1 | inactive: -30.8% | 
C[C@@H]1C[C@@H](CC(=O)NCC2Cc3cccc(-c4ccncc4)c3O2)NC(=S)N1 (some centres not stated) | inactive: -1.33% | 

SMILES | activation | Potency
CCOc1ccc(/C=C/C(=O)c2cccs2)cc1 | inactive: 0.839% | 
CCN(C)C(=O)Oc1cccc([C@H](C)N(C)C)c1 | inactive: 1.95% | 
Nc1ccc(S(=O)(=O)Nc2ccnn2-c2ccccc2)cc1 | inactive: -2.92% and inactive: 1.03% and inactive: -16.3% | 
CCNc1ncc2nc(C)c(=O)n(CCOC)c2n1 | inactive: -9.89% | 
COC(=O)C(c1ccccc1Cl)N1CCc2sccc2C1 (configuration not stated) | inactive: -17.5% and inactive: 2.43% | 
Cc1ccccc1-c1nc(N2CCN(C)CC2)c2ccccc2n1 | inactive: -7.11% | 
O=C(OC1Cc2c(O)cc(O)cc2OC1c1cc(O)c(O)c(O)c1-c1c(C2Oc3cc(O)cc(O)c3CC2O)cc(O)c(O)c1O)c1cc(O)c(O)c(O)c1 (configuration not stated) | inactive: -9.51% | 
N#Cc1cccc(-c2nccc(NCc3cccs3)n2)c1 | inactive: 1.38% | 
COCCn1c(=O)c(C)nc2cnc(N3CCNCC3)nc21 | inactive: -26.8% | 
COc1ccc(Oc2ncc3nc(-c4cccs4)c(=O)n(-c4ccccc4)c3n2)cc1 | inactive: 0.425% | 
C=CC(C)(O)CC1[C@@]2(C)CCCC(C)(C)C2CC[C@]1(C)O (some centres not stated) | inactive: -28.7% | 
CNCC(O)c1cccc(O)c1 (configuration not stated) | inactive: -7.27% | 
O=C(NCC(O)CO)c1c(I)c(C(=O)NCC(O)CO)c(I)c(N(CCO)C(=O)CO)c1I (configuration not stated) | inactive: -1.97% | 
COc1ccccc1N1CCN(CCCCNS(=O)(=O)c2cccc3c(N(C)C)cccc23)CC1 | inactive: 0.394% | 
NCCNC(=O)c1ncsc1-c1cccc(F)c1 | inactive: 12.1% | 
Cc1cc(CC(=O)O)n(C)c1C(=O)c1ccc(Cl)cc1 | inactive: -4.28% and inactive: 4.55% | 
Cc1ccc(C(=O)O[C@H](C(=O)O)[C@@H](OC(=O)c2ccc(C)cc2)C(=O)O)cc1 (tested in a mixture with another compound) | inactive: -33.7% | 
Cc1cc2nc3c(=O)[nH]c(=O)nc-3n(CC(O)C(O)C(O)CO)c2cc1C (configuration not stated) |  | active: 89.1 µM
CO[C@@]1(NC(=O)CSC[C@@H](N)C(=O)O)C(=O)N2C(C(=O)O)=C(CSc3nnnn3C)CS[C@@H]21 | inactive: -0.944% | 

Source: PubChem BioAssay AID1645887 (National Center for Advancing Translational Sciences (NCATS), 2021)
